Measurements taken from patent publication US20250295802A1, “HER3 ANTIBODY-DRUG CONJUGATE AND USE THEREOF” (DUALITY BIOLOGICS (SUZHOU) CO., LTD., priority 2022, published 2025).

What was measured:
[1] = test system: human lung cancer LU1542 subcutaneous xenograft; experiment: Efficacy in human lung cancer LU1542 subcutaneous xenograft tumor-bearing mice; assay type: in vivo, mouse; conditions: tail vein 1 time, end of experiment, 28 days
Experimental: (§1) To evaluate the anti-tumor effect of the antibody-drug conjugates of the present application in human lung cancer LU1542 subcutaneous xenograft tumor-bearing mice using female BALB/c nude mice as test animals. • Blank control (negative control group): […] The day of administration for each group was defined as day 0. The administration was performed by tail vein injection for 1 time, and the experiment ended 28 days after the administration. The tumor volume and weight were measured twice a week, and the data were recorded. At the end of the experiment, mice were euthanized and tumor growth inhibition TGI % was calculated as follows: (TGI=(1−(Ti−T0)/(Vi−V0))). Ti: mean tumor volumes of the treatment groups and the positive control group on day i of administration; T0: mean tumor volumes of the treatment groups and the positive control group on day 0 of administration; Vi: mean tumor volume of the negative control group on day i of administration; V0: mean tumor volume of the negative control group on day 0 of administration. Data were analyzed using Excel 2016 statistical software, wherein the mean value was calculated as avg; the SD value was calculated as STDEV; and the P value of the difference between groups was calculated as TTEST.

MDA-MB-231 cells = experiment: In vitro proliferation inhibition (CTG), MDA-MB-231; assay type: cell-based; conditions: 6 days of culture, not expressing Her3
Experimental: To test the proliferation inhibitory activity of the antibody-drug conjugate of the present application targeting HER3 to HCC1569 and MDA-MB-453 cells with high expression of Her3 and MDA-MB-231 tumor cells not expressing Her3 in vitro. The cells were treated with the antibody-drug conjugates at different concentrations in vitro, and after 6 days of culture, the proliferation of cells was detected using the CTG reagent, and the in vitro activity of the compounds was evaluated according to the 50% growth inhibitory concentration (IC50) value.
• 1. Cell culture: HCC1569, MDA-MB-453, or MDA-MB-231 cells were cultured in RPMI-1640 medium containing 10% FBS. • 2. Cell Preparation: HCC1569, MDA-MB-453, or MDA-MB-231 cells in logarithmic phase were taken, washed with PBS once, and digested with 2-3 mL of trypsin for 2-3 min. After the cells were digested completely, 10-15 mL of cell culture was added to elute the digested cells. […] The cells were stained with trypan blue and viable cells were counted. • 3. […] Sample adding: the prepared samples to be detected at different concentrations were added to the culture plate, and two duplicate wells were set for each sample. […] Plate reading: the 96-well cell culture plate was taken out, placed in a 2104 EnVision microplate reader, and measured for the chemiluminescence using the microplate reader. […]

Colo205 xenograft = experiment: Efficacy in Colo205 tumor-bearing mice; assay type: in vivo, mouse; conditions: 1 mg/kg tail vein 1 time every two weeks; end of experiment, 22 days
Experimental: To evaluate the anti-tumor effect of the antibody-drug conjugates of the present application using BALB/c nude mice as test animals; • Blank control (negative control group): […] Colo205 cells were subcutaneously inoculated into the right flank of the mice, 1×10^7 cells (100 μL/mouse). When the tumors grew to 80-120 mm^3, the animals were randomly grouped, 5 animals per group. The day of administration for each group was defined as day 0. The administration was performed by tail vein injection 1 time every two weeks, and the experiment ended 22 days after the administration. The tumor volume and weight were measured twice a week, and the data were recorded. At the end of the experiment, mice were euthanized and tumor growth inhibition TGI % was calculated as follows: (TGI=(1−(Ti−T0)/(Vi−V0))). Ti: mean tumor volumes of the treatment groups and the positive control group on day i of administration; T0: mean tumor volumes of the treatment groups and the positive control group on day 0 of administration; Vi: mean tumor volume of the negative control group on day i of administration; V0: mean tumor volume of the negative control group on day 0 of administration. Data were analyzed using Excel 2016 statistical software, wherein the mean value was calculated as avg; the SD value was calculated as STDEV; and the P value of the difference between groups was calculated as TTEST.

NCI-H441 xenograft = experiment: Efficacy in NCI-H441 lung cancer cell tumor-bearing mice; assay type: in vivo, mouse; conditions: tail vein 1 time, 28 days
Experimental: as §1, with “Tumor-Bearing Mice Objective To” for “To”, “NCI-H441” for “human lung cancer LU1542 subcutaneous xenograft”, “male NU/NU” for “female BALB/c”, “[…] The test mice were inoculated subcutaneously on the right dorsum with 5×10^6 NCI-H441 cells, and the cells were resuspended in 0.1 mL of PBS and Matrigel (1:1). The growth of the tumors was monitored periodically.” for “• Blank control (negative control group):”, “(TGI=(1−(Ti−T0)/(Vi−V0))).” left out

B1: ADC-1-X2: anti-Her3 antibody hu3F8-2 conjugated with linker-payload X2, DAR 7.53 (conjugate)
heavy: QVQLQESGPGLVKPSETLSLTCTVSGYSITSAYYWNWIRQPFGKGLEWMGYISYDGRNNFNPSLKNRVTISRDTSKNQFSLKLSSVTAADTAVYYCARDGDYDYFDYWGQGTTVTVSS[human IgG1 constant region left out]
light: DIQMTQSPSSLSASVGDRVTITCRASQDISNYLNWYQQKPGKAPKLLIYYTSILHSGVPSRFSGSGSGTDYTFTISSLQPEDIATYFCQQGDTLPPTFGGGTKLEIKRTVAAPSVFIFPPSDEQLKSGTASVVCLLNNFYPREAKVQWKVDNALQSGNSQESVTEQDSKDSTYSLSSTLTLSKADYEKHKVYACEVTHQGLSSPVTKSFNRGEC
[1]; 3 mg/kg
  Mean tumor volume: 461.39 ± 106.26 mm^3
  Tumor growth inhibition %: 77.50%
[1]; 10 mg/kg
  Mean tumor volume: 302.78 ± 129.69 mm^3
  Tumor growth inhibition %: 88.49%
MDA-MB-231 cells
  IC50: > 100 nM
Colo205 xenograft
  Mean tumor volume: 263.20 ± 105 mm^3
  Tumor growth inhibition %: 49.09%
NCI-H441 xenograft; dose 0.3 mg/kg
  T/C (%): 61.91%
  TGI (%): 38.09%
  Tumor volume (mean ± SEM): 546.52 ± 109.10
NCI-H441 xenograft; dose 1 mg/kg
  T/C (%): 18.35%
  TGI (%): 81.65%
  Tumor volume (mean ± SEM): 162.00 ± 42.47
